Hit rate of the full screen: of about 230,000 compounds, about 3,600 (1.6%) were called active. This list was built around the results that the source calls inconclusive (neither active nor inactive); the mix of calls is not that of the screen. Calls follow the shape of the dose curve; as a rule, active = well fitted inhibition curve with a large enough effect (not every such curve was filed as active); inconclusive = small, poorly fitted or top-dose-only effect, or another doubt; inactive = no such curve, though single readings can be large or run the other way. Where the call is inconclusive, the potency comes from a doubtful curve fit.
The compounds below were run against Lysine-specific demethylase 4E (Homo sapiens) (UniProt B2RXH2) (assay: qHTS Assay for Inhibitors of Human Jumonji Domain Containing 2E (JMJD2E)). Conditions: JMJD2E catalytic domain, FDH-coupled NADH fluorescence (FDH is formaldehyde dehydrogenase); series mostly up to 57.1 µM; activity change, negative = inhibition: at the top concentration.
Also: nearly all actives have a fitted effect of over 50% in size.
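For activity change, negative = inhibition in this document: 0% = wells with enzyme and -100% = buffer wells without enzyme.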
Potency is read from the fitted curve at half-maximal effect; tags tell the direction and shape of the fitted curve.

Chain of UniProt B2RXH2 (B2RXH2 whole entry, looked up, the tested form may be a part): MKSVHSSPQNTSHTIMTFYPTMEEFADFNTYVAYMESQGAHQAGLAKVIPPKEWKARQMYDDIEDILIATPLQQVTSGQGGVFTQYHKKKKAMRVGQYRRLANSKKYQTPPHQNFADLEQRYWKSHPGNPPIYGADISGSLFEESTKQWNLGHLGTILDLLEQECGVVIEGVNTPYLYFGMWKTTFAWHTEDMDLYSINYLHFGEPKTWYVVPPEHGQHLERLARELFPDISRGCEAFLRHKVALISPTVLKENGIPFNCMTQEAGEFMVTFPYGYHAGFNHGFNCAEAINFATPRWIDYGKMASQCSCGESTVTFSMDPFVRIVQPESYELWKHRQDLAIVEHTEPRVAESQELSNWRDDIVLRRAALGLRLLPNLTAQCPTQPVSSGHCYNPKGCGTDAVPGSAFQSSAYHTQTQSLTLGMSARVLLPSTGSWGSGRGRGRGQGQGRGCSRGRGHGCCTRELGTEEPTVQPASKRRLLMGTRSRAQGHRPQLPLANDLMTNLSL

SMILES | activity change, negative = inhibition | Potency
CCOC(=O)CN1C(=O)C(Sc2n[nH]c(-c3ccc(O)cc3)n2)CCc2ccccc21 (stereo not drawn) | inactive: -4.19% | 
CC1(C)CC(=O)C(C=Nc2ccc3[nH]ncc3c2)=C(O)C1 |  | inconclusive: 28.2 µM [inhibitor, partial curve]
O=C(NCCCn1ccnc1)c1cccc(S(=O)(=O)Nc2ccccc2F)c1 | inactive: 2.38% | 
CC(=O)N(C1=C(N)C(=O)c2ccccc2C1=O)C(C)C | inactive: -0.0438% | 
COc1ccc2[nH]c(=O)c(CN(C(=O)C3CCCO3)c3ccc(C)c(C)c3)cc2c1 (stereo not drawn) |  | inconclusive: 5.01 µM [inhibitor, full curve]
O=C(CCCCCn1c(=S)[nH]c2ccc(N3CCOCC3)cc2c1=O)NCc1ccccc1Cl |  | inconclusive: 31.6 µM [inhibitor, partial curve]
O=C(CN1CCCC1)Nc1ccc(F)cc1 |  | inconclusive: 39.8 µM [inhibitor, single point]
COc1ccc(/C=C/C(=O)N2CCN(S(=O)(=O)c3ccccc3)CC2)cc1OC |  | inconclusive: 31.6 µM [inhibitor, partial curve]
O=C(Nc1ccc2c(c1)OCCO2)c1ccc(Br)c(S(=O)(=O)N2CCOCC2)c1 | inactive: 0.797% | 
COc1cccc(/C=N/NC(=O)c2ccc(CN3c4cccc5cccc(c45)S3(=O)=O)cc2)c1 |  | inconclusive: 22.4 µM [inhibitor, partial curve]
CCOc1cccc(C(=O)NC(=S)Nc2ccc(N3CCCC3)cc2)c1 | inactive: -7.61% | 
CC(C)CC(=O)NC(=S)Nc1sc2c(c1C(N)=O)CCC2 | inactive: -14.1% | 
O=C(CSc1ccccc1)Nc1nc2ccccc2[nH]1 | inactive: -10.8% | 
COc1ccc(-c2cc(-c3c(O)c(OC)c4occc4c3OC)[nH]n2)cc1 |  | inconclusive: 39.8 µM [inhibitor, single point]
Cc1nn(C)c2ncc(C(N)=O)c(Oc3cccnc3)c12 |  | inconclusive: 22.4 µM [inhibitor, partial curve]
COc1ccc2c(c1)c1nnc(SCC(=O)N3CCCCC3C)nc1n2C (stereo not drawn) | inactive: 4.28% | 
COC(=O)N[C@@H](c1cccc(F)c1)C(C(C)=O)C(=O)OC (stereo partly drawn) |  | inconclusive: 3.55 µM [inhibitor, single point]
COc1ccc(-c2nnc(SCC(=O)Nc3cc(F)ccc3C)o2)cc1 |  | inconclusive: 35.5 µM [inhibitor, single point]
CC(=O)N1CCC2(CC1)CC(=O)c1cc(OCC(=O)NCc3ccc(C)cc3)ccc1O2 |  | inconclusive: 28.2 µM [inhibitor, partial curve]
CCc1nc(NCCO)c(C#N)c2c1CCCC2 |  | inconclusive: 22.4 µM [inhibitor, partial curve]
O=C(CSc1nnc2ccccn12)N1CCc2ccccc2C1 |  | inconclusive: 35.5 µM [inhibitor, single point]
C=CCn1c(C)cc(C2=NNC(=NCC)SC2)c1C |  | inconclusive: 31.6 µM [inhibitor, single point]
CCC1CCCCN1CC(=O)c1c(C)[nH]c2ccc(OC)cc12 (stereo not drawn) |  | inconclusive: 39.8 µM [inhibitor, single point]
Cn1cnnc1SCC(=O)Nc1ccc(Cl)c(S(=O)(=O)N2CCOCC2)c1 | inactive: -1.65% | 

SMILES | activity change, negative = inhibition | Potency
O=C1N(Cc2cccc(Cl)c2)C[C@@H]2C[C@@H](c3cccn3-c3cccnc3)N3CCC[C@@]123 | inactive: -8.84% | 
CC(C)NC(=O)Cn1nnc(-c2cccc(NC(=O)c3ccccc3F)c2)n1 |  | inconclusive: 35.5 µM [inhibitor, single point]
COCCNS(=O)(=O)c1ccc(-c2ccc(S(=O)(=O)NCCOC)cc2)cc1 |  | inconclusive: 35.5 µM [inhibitor, single point]
COCCCn1c(-c2ccccc2Cl)n[nH]c1=S | inactive: -0.293% | 
CC(C)CNC(=O)COC(=O)c1cc(Cl)cc(Cl)c1N |  | inconclusive: 15.8 µM [inhibitor, partial curve]
COc1ccc(-c2csc(NC(=O)c3ccccc3NS(=O)(=O)c3ccc(C)cc3)n2)cc1 |  | inconclusive: 35.5 µM [inhibitor, partial curve]
O=C(Nc1ccccc1F)c1cc2nc(C(F)F)cc(C(F)F)n2n1 |  | inconclusive: 35.5 µM [inhibitor, single point]
S=C1NCN(Cc2ccco2)CN1c1ccccc1 | inactive: 2.27% | 
CCOc1cc(/C=C2/NC(=O)N(CC(=O)OC)C2=O)ccc1OC | inactive: -10.2% | 
c1ccc(-n2nnnc2Sc2ncnc3sc4c(c23)CCCC4)cc1 |  | inconclusive: 31.6 µM [inhibitor, partial curve]
COc1ccc(CCNC(=O)c2cc(=O)n(C)c(=O)n2C)cc1OC | inactive: 9.67% | 
Cc1cc(=O)c2c(O)c(O)ccc2o1 |  | inconclusive: 7.94 µM [inhibitor, partial curve]
O=C(CN1CCOCC1)N/N=C/c1ccccc1 | inactive: 5.73% | 
O=C(O)c1ccccc1N/N=C/C1=C(N2CCOCC2)C(=C\c2ccccc2)/CC1 |  | inconclusive: 25.1 µM [inhibitor, single point]
CCOC(=O)c1cnc(SC)nc1Sc1ccccc1Cl | inactive: 1.2% | 
COc1ccc(C2NC(=S)NC3=C2CCc2ccccc23)cc1OC (stereo not drawn) |  | inconclusive: 28.2 µM [inhibitor, single point]
Cc1cc(=O)n2c3ccccc3n(CC(O)CN3CCOCC3)c2c1C#N (stereo not drawn) |  | inconclusive: 35.5 µM [inhibitor, single point]
COc1ccc2occ(C(=O)c3coc4ccc(O)c(CN(C)C)c34)c2c1 |  | inconclusive: 39.8 µM [inhibitor, single point]
CN(C)c1ccc(C2CC(=O)C=C(Nc3ccccc3N)C2)cc1 (stereo not drawn) | inactive: -7.77% | 
COc1c(O)cc2oc3cc(O)c(CC=C(C)C)c(O)c3c(=O)c2c1CC=C(C)C | inactive: 0.962% | 
CCOC(=O)C1(O)Oc2cc(OC)cc(OC)c2C(=O)C1c1ccccc1 (stereo not drawn) |  | inconclusive: 39.8 µM [inhibitor, single point]
CCCN1C2CCCC1CC(NC(=O)NC1CCCCC1)C2 (stereo not drawn) | inactive: 8.99% | 
CC1CCCN(C(=O)c2ccncc2)C1 (stereo not drawn) | inactive: 12.7% | 
CC(C)CNc1oc(-c2ccc(F)cc2)nc1C#N |  | inconclusive: 28.2 µM [inhibitor, partial curve]

From PubChem BioAssay AID2147 (National Center for Advancing Translational Sciences (NCATS), 2009)
